# Results as given in the supplement of paper PMC11417369.
# Some of the results follow.
# Tested on: PfSIP2 AP2 domain 1 (GST-tagged)
# Assay: gcPBM binding intensity (ln(normalized median fluorescence intensity)); higher = stronger DNA binding
# In short: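 The highest Masliner-normalised natural-log median intensity across replicate spots of either probe orientation is reported as binding intensity. GST-tagged P. falciparum DNA-binding domains expressed in E. coli were applied for 1 h to an Agilent 4 × 180k array of primer-extended double-stranded 36-bp intergenic genomic probes plus negative controls, and bound protein was detected with Alexa488 anti-GST antibody and scanned at 488 nm.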
row,Sequence,gcPBM binding intensity (ln)
1,TTTACATCAACCTTTTCACACATTCATATACAGATA [CACACA_site6152],7.29
2,TTCAAAAAATAAAATAATAATATATATATAAATATA [XGTACX_negctrl_site84],6.65
3,TCATTAAAGGAAAAATGTACGTATAAATAAATATAT [XGTACX_site2587],7.07
4,TTTTTTATATTTAAACTTCACATGGTTTTCATTTAT [XGTACX_negctrl_site291],6.85
5,ATACATATATATATATGTACACATAAACATGAGTGA [XGTACX_site3200],7.27
6,TAATGGAAACCATTTATTTTCTGCAATATATTTTTT [CACACA_negctrl_site1653],6.58
7,ATACATAAAATTAAAACACACATTTTATTAAATACG [CACACA_site2167],6.91
8,AGTTATATGGTTAATACACACAACAAATGTTTCTTC [CACACA_site6642],6.91
9,GTGTGATGGTACAATATACACACTTAAAAAAAAAAA [CACACA_site8769],7.04
10,AAAAAATATATTTGCACACTCAAAAAAAAAAAAAAA [CACACA_site859],7.3
11,TACCTAATATGTTATACACACATTATAAGTACATAT [CACACA_site7206],7.23
12,AATATAACTTAGAATTGTACATAAAAAAAAATATAT [XGTACX_site3313],7.12
13,TAAGAAATAAATAGTACACACATAGACACACGCACA [CACACA_site6821],8
14,TTTTGTTTAATATTCACACATATATATTTTTTATTT [CACACA_site5496],7.17
15,CTTTTTATTTAGGAGGTGCATGTAATACGGAACATA,10.9
16,ATTTGTTATATATTCTTTTATGTTAATAATTCGAAT [CACACA_negctrl_site378],7.07
17,GATCTATACATGGGGACACACATCACTCTATATTTT [CACACA_site3408],7.33
18,TATGAATAAAAAAGAAGTACAAATTATATGAACGCA [XGTACX_site3018],7.25
19,AAAAAATACAAACACACACACACACCCATATATATA [CACACA_site3560],7.52

row,Sequence,gcPBM binding intensity (ln)
1,CATACTGTTATAAAATGTACGCATATACACACACAT [XGTACX_site7256],7.26
2,TACATATTTTGTATATATTATTTATTTTATTAGTTT [XGTACX_negctrl_site85],6.74
3,TTCTGACTTGTTATAATTTGTATATCCGAAAAAATT [TGCATGCA_negctrl_site456],7.04
4,ACTATTATTAAAAATTGTACTTTCTATAAATTTTTT [XGTACX_site7825],7.14
5,ATTTTGTGTAGTGATGCATGTTATATATATATTTGA [TGCATGCA_site422],7.33
6,AGAAACATATGGTAGTGTACTGTAAATTTATTCTTT [XGTACX_site8602],6.93
7,TTTTATCAAATATTTATTTTATACATAAATATTTAT [XGTACX_negctrl_site528],7.06
8,ATAACATCAGTATTATGTACATATGTAGGTAAATAA [XGTACX_site7066],7.26
9,TTTTATTGTTTTTTTTTTTTTTCTTTTTTTTTTTTT [CACACA_negctrl_site1094],7.24
10,CGTTATTATACACATACACACAGGAATAAAAAATTA [CACACA_site7373],7.29
11,ATTATTATATTTATATGTACATAGAAAAAATTAAAT [XGTACX_site2058],7.42
12,AAAGTGGCCATATATTTTTTTTTTTTTTTCCTTATT [CACACA_negctrl_site485],6.7
13,AAAAATAAAGGATATACACACTAATTATATATATAT [CACACA_site5550],8.77
14,TCAGATATATATATATAAATATATATTTTGAAATGT [CACACA_negctrl_site686],7.13
15,TAGTATCCAAGAAAAAGTACTTATTTTAATTTTTTA [XGTACX_site6243],6.73
16,AATATTTATAAAGACACACAAACAAAAAGGATAAAA [CACACA_site2985],7.41
17,TCATTTAAGTAGACGCGTACGGAAATTACGAATCCT [XGTACX_site144],6.61
18,TTTTTTTTTTGTTGAGTGCAATTATTTGTAAGAAAA,8.17
19,AAATTAATATATAAAAGTACCCATATATTTAATATA [XGTACX_site3551],6.93

row,Sequence,gcPBM binding intensity (ln)
1,AGTTTGTTTTTTTTTTTTTTTTCCTGTCACAAACAA [CACACA_negctrl_site1093],6.98
2,TCTCCACCTCTCTTGGTGCGTTATACCCTCGAGGCT,8.65
3,TATAACAAAATATTCACACATATAAGTAAATAAAGG [CACACA_site5777],7.23
4,TCAAAGCACCCATACACACACATATATATATATATA [CACACA_site4317],9.71
5,GTCATATATATATGTACACACATATATATATTTATA [CACACA_site1459],7.07
6,GTACGTTACATAAATGTGCACATATTATATGCGAAG,9.38
7,AAGACTGCACTTTAAGCACACAAATATATTTTTTTT [CACACA_site8337],8.18
8,AAGAAAAAAATTTAATTAAATGAAATTTTTGAATTA [TGCATGCA_negctrl_site25],6.51
9,TGATAAAATGGGGAAATTCATTATATCATATCTTGG [CACACA_negctrl_site789],6.62
10,TTGGATAAAAAATATGTACACACATATAGATATCTA [CACACA_site8862],6.95
11,ATTATATTAAAATACACACCCAAATATTAAAAAGAT [CACACA_site5613],7.47
12,TTTGAAATATTAAATGCATGTTAAAACATAAAAATG [TGCATGCA_site680],7.05
13,TTTCTTCTTCTATTGTGTACGTAAAAAAAAAAAAAA [XGTACX_site772],7.73
14,GGTAATTTCCTTTTTTGTACTCATAGAAGGATAATA [XGTACX_site89],7.18
15,ACTGTAAAAGGATTTACACACATATTTACATTTACA [CACACA_site519],7
16,TACCAATGCATAACGGTGCAAAAAAATAAGGAATAA,10.7
17,ATGCATATAACTACGTGTACAAATATACACAAATAC [XGTACX_site8811],7.22
18,ACCCATAAAAAGGATACACACACACCCACCCATATA [CACACA_site8205],6.97
19,ATATATATATTTGTATGTACATATATATATTCGTAT [XGTACX_site1640],8.34
